# Measured values as given in the supplement of paper PMC8728848.
# Some of the results follow.
# B1: HBHA-Rv (Mycobacterium tuberculosum), P0A5P6 (protein)
# chain: MAENSNIDDIKAPLLAALGAADLALATVNELITNLRERAEETRTDTRSRVEESRARLTKLQEDLPEQLTELREKFTAEELRKAAEGYLEAATSRYNELVERGEAALERLRSQQSFEEVSARAEGYVDQAVELTQEALGTVASQTRAVGERAAKLVGIELPKKAAPAKKAAPAKKAAPAKKAAAKKAPAKKAAAKKVTQK
# Assays:
# Assay in all cases: glycan array binding signal (z-score within array); higher = stronger binding
# Details in all cases: glycan notation: IUPAC condensed, linker removed
# [1] = target: Fuc(a1-2)[Gal(a1-3)]Gal(b1-4)GlcNAc(b1-2)Man(a1-3)[Fuc(a1-2)[Gal(a1-3)]Gal(b1-4)GlcNAc(b1-2)Man(a1-6)]Man(b1-4)GlcNAc(b1-4)GlcNAc
# In short: (§1)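 Columns mapping to the same glycan were averaged after glycan names were converted to IUPAC-condensed notation. The data come from 3228 arrays in the Consortium for Functional Glycomics database, limited to those with an available protein sequence. Binding is reported as a within-array Z-score averaged across arrays of one protein sequence and across linkers.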
# [2] = target: Fuc(a1-2)[Gal(a1-3)]Gal(b1-4)GlcNAc(b1-2)Man(a1-3)[Fuc(a1-2)[Gal(a1-3)]Gal(b1-4)GlcNAc(b1-2)Man(a1-6)]Man(b1-4)GlcNAc(b1-4)[Fuc(a1-6)]GlcNAc
# In short: as §1
# [3] = target: Fuc(a1-2)[Gal(a1-3)]Gal(b1-4)GlcNAc(b1-3)GalNAc
# In short: as §1
# [4] = target: Fuc(a1-2)[Gal(a1-3)]Gal(b1-4)GlcNAc(b1-3)[Fuc(a1-2)[Gal(a1-3)]Gal(b1-4)GlcNAc(b1-6)]GalNAc
# In short: as §1
# [5] = target: Fuc(a1-2)[Gal(a1-3)]Gal(b1-4)GlcNAc(b1-6)GalNAc
# In short: as §1
# [6] = target: Fuc(a1-2)[Gal(a1-3)]Gal(b1-4)[Fuc(a1-3)]Glc
# In short: as §1
# [7] = target: Fuc(a1-2)[Gal(a1-3)]Gal(b1-4)[Fuc(a1-3)]GlcNAc
# In short: as §1
# [8] = target: Fuc(a1-2)[Gal(a1-3)]Gal(b1-4)[Fuc(a1-3)]GlcNAc(b1-3)GalNAc
# In short: as §1
# [9] = target: Fuc(a1-2)[Gal(a1-4)]Gal(b1-4)GlcNAc
# In short: as §1
# [10] = target: Fuc(a1-2)[GalNAc(a1-3)]Gal
# In short: as §1
# [11] = target: Fuc(a1-2)[GalNAc(a1-3)]Gal(b1-3)GalNAc(a1-3)[Fuc(a1-2)]Gal(b1-4)GlcNAc
# In short: as §1
# [12] = target: Fuc(a1-2)[GalNAc(a1-3)]Gal(b1-3)GalNAc(b1-3)Gal(a1-4)Gal(b1-4)Glc
# In short: as §1
# [13] = target: Fuc(a1-2)[GalNAc(a1-3)]Gal(b1-3)GlcNAc
# In short: as §1
# [14] = target: Fuc(a1-2)[GalNAc(a1-3)]Gal(b1-3)GlcNAc(b1-2)Man(a1-3)[Fuc(a1-2)[GalNAc(a1-3)]Gal(b1-3)GlcNAc(b1-2)Man(a1-6)]Man(b1-4)GlcNAc(b1-4)GlcNAc
# In short: as §1
# [15] = target: Fuc(a1-2)[GalNAc(a1-3)]Gal(b1-3)GlcNAc(b1-2)Man(a1-3)[Fuc(a1-2)[GalNAc(a1-3)]Gal(b1-3)GlcNAc(b1-2)Man(a1-6)]Man(b1-4)GlcNAc(b1-4)[Fuc(a1-6)]GlcNAc
# In short: as §1
# [16] = target: Fuc(a1-2)[GalNAc(a1-3)]Gal(b1-3)GlcNAc(b1-3)GalNAc
# In short: as §1
# [17] = target: Fuc(a1-2)[GalNAc(a1-3)]Gal(b1-3)GlcNAc(b1-6)GalNAc
# In short: as §1
# [18] = target: Fuc(a1-2)[GalNAc(a1-3)]Gal(b1-4)Glc
# In short: as §1
# [19] = target: Fuc(a1-2)[GalNAc(a1-3)]Gal(b1-4)GlcNAc
# In short: as §1
# [20] = target: Fuc(a1-2)[GalNAc(a1-3)]Gal(b1-4)GlcNAc(b1-2)Man
# In short: as §1
# [21] = target: Fuc(a1-2)[GalNAc(a1-3)]Gal(b1-4)GlcNAc(b1-2)Man(a1-3)[Fuc(a1-2)[GalNAc(a1-3)]Gal(b1-4)GlcNAc(b1-2)Man(a1-6)]Man(b1-4)GlcNAc(b1-4)GlcNAc
# In short: as §1
# [22] = target: Fuc(a1-2)[GalNAc(a1-3)]Gal(b1-4)GlcNAc(b1-2)Man(a1-3)[Fuc(a1-2)[GalNAc(a1-3)]Gal(b1-4)GlcNAc(b1-2)Man(a1-6)]Man(b1-4)GlcNAc(b1-4)[Fuc(a1-6)]GlcNAc
# In short: as §1
# [23] = target: Fuc(a1-2)[GalNAc(a1-3)]Gal(b1-4)GlcNAc(b1-3)Gal(b1-4)GlcNAc
# In short: as §1
# [24] = target: Fuc(a1-2)[GalNAc(a1-3)]Gal(b1-4)GlcNAc(b1-3)Gal(b1-4)GlcNAc(b1-3)Gal(b1-4)GlcNAc
# In short: as §1
# [25] = target: Fuc(a1-2)[GalNAc(a1-3)]Gal(b1-4)GlcNAc(b1-3)GalNAc
# In short: as §1
# [26] = target: Fuc(a1-2)[GalNAc(a1-3)]Gal(b1-4)GlcNAc(b1-3)[Fuc(a1-2)[GalNAc(a1-3)]Gal(b1-4)GlcNAc(b1-6)]GalNAc
# In short: as §1
# [27] = target: Fuc(a1-2)[GalNAc(a1-3)]Gal(b1-4)GlcNAc(b1-6)GalNAc
# In short: as §1
# [28] = target: Fuc(a1-2)[GalNAc(a1-3)]Gal(b1-4)[Fuc(a1-3)]GlcNAc
# In short: as §1
# [29] = target: Fuc(a1-2)[GalNAc(a1-3)]Gal(b1-4)[Fuc(a1-3)]GlcNAc(b1-3)GalNAc
# In short: as §1
# [30] = target: Fuc(a1-2)[GalNAc(a1-4)]Gal(b1-4)GlcNAc
# In short: as §1
# [31] = target: Fuc(a1-2)[GalNAc(b1-3)]Gal
# In short: as §1
# Fuc(a1-3)GlcNAc = target: Fuc(a1-3)GlcNAc
# In short: as §1
# [32] = target: Fuc(a1-3)[Gal(b1-4)]Glc6S
# In short: as §1
# [33] = target: Fuc(a1-3)[Gal(b1-4)]GlcNAc
# In short: as §1
# [34] = target: Fuc(a1-3)[Gal(b1-4)]GlcNAc(b1-2)Man
# In short: as §1
# [35] = target: Fuc(a1-3)[Gal(b1-4)]GlcNAc(b1-2)Man(a1-3)[Fuc(a1-3)[Gal(b1-4)]GlcNAc(b1-2)Man(a1-6)]Man(b1-4)GlcNAc(b1-4)GlcNAc
# In short: as §1
# [36] = target: Fuc(a1-3)[Gal(b1-4)]GlcNAc(b1-2)Man(a1-3)[Fuc(a1-3)[Gal(b1-4)]GlcNAc(b1-2)Man(a1-6)]Man(b1-4)GlcNAc(b1-4)[Fuc(a1-6)]GlcNAc
# In short: as §1
# [37] = target: Fuc(a1-3)[Gal(b1-4)]GlcNAc(b1-3)Gal(b1-3)[Fuc(a1-4)]GlcNAc
# In short: as §1
# [38] = target: Fuc(a1-3)[Gal(b1-4)]GlcNAc(b1-3)Gal(b1-4)[Fuc(a1-3)]GlcNAc
# In short: as §1
# [39] = target: Fuc(a1-3)[Gal(b1-4)]GlcNAc(b1-3)Gal(b1-4)[Fuc(a1-3)]GlcNAc(b1-3)Gal(b1-4)[Fuc(a1-3)]GlcNAc
# In short: as §1
# [40] = target: Fuc(a1-3)[Gal(b1-4)]GlcNAc(b1-3)GalNAc
# In short: as §1
# [41] = target: Fuc(a1-3)[Gal(b1-4)]GlcNAc(b1-6)GalNAc
# In short: as §1
# [42] = target: Fuc(a1-3)[Gal(b1-4)]GlcNAc(b1-6)[Gal(b1-3)GlcNAc(b1-3)]Gal(b1-4)Glc
# In short: as §1
# [43] = target: Fuc(a1-3)[Gal(b1-4)]GlcNAc6S
# In short: as §1
# [44] = target: Fuc(a1-3)[Gal3S(b1-4)]Glc
# In short: as §1
# [45] = target: Fuc(a1-3)[Gal3S(b1-4)]GlcNAc
# In short: as §1
# [46] = target: Fuc(a1-3)[Gal3S(b1-4)]GlcNAc6S
# In short: as §1
# [47] = target: Fuc(a1-3)[GalNAc(b1-4)]GlcNAc
# In short: as §1
# [48] = target: Fuc(a1-3)[GalNAc(b1-4)]GlcNAc6S
# In short: as §1
# Fuc(a1-4)GlcNAc = target: Fuc(a1-4)GlcNAc
# In short: as §1
# Fuc(b1-3)GlcNAc = target: Fuc(b1-3)GlcNAc
# In short: as §1
# Gal(a1-2)Gal = target: Gal(a1-2)Gal
# In short: as §1
# Gal(a1-3)Gal = target: Gal(a1-3)Gal
# In short: as §1
# Gal(a1-3)Gal(b1-3)GlcNAc = target: Gal(a1-3)Gal(b1-3)GlcNAc
# In short: as §1
# [49] = target: Gal(a1-3)Gal(b1-3)GlcNAc(b1-2)Man
# In short: as §1
# [50] = target: Gal(a1-3)Gal(b1-3)GlcNAc(b1-2)Man(a1-3)[Gal(a1-3)Gal(b1-3)GlcNAc(b1-2)Man(a1-6)]Man(b1-4)GlcNAc(b1-4)GlcNAc
# In short: as §1
# [51] = target: Gal(a1-3)Gal(b1-3)GlcNAc(b1-3)GalNAc
# In short: as §1
# [52] = target: Gal(a1-3)Gal(b1-3)GlcNAc(b1-6)GalNAc
# In short: as §1
# [53] = target: Gal(a1-3)Gal(b1-3)[Fuc(a1-4)]GlcNAc(b1-2)Man(a1-3)[Gal(a1-3)Gal(b1-3)[Fuc(a1-4)]GlcNAc(b1-2)Man(a1-6)]Man(b1-4)GlcNAc(b1-4)GlcNAc
# In short: as §1
# Gal(a1-3)Gal(b1-4)Glc = target: Gal(a1-3)Gal(b1-4)Glc
# In short: as §1
binder,measurement,setting,value
B1,glycan array binding signal (z-score),[1],-0.445
same,glycan array binding signal (z-score),[2],-0.437
same,glycan array binding signal (z-score),[3],-0.204
same,glycan array binding signal (z-score),[4],2.82
same,glycan array binding signal (z-score),[5],-0.329
same,glycan array binding signal (z-score),[6],-0.399
same,glycan array binding signal (z-score),[7],0.961
same,glycan array binding signal (z-score),[8],-0.19
same,glycan array binding signal (z-score),[9],0.274
same,glycan array binding signal (z-score),[10],0.042
same,glycan array binding signal (z-score),[11],-0.141
same,glycan array binding signal (z-score),[12],-0.404
same,glycan array binding signal (z-score),[13],0.418
same,glycan array binding signal (z-score),[14],-0.467
same,glycan array binding signal (z-score),[15],-0.165
same,glycan array binding signal (z-score),[16],-0.274
same,glycan array binding signal (z-score),[17],-0.378
same,glycan array binding signal (z-score),[18],0.064
same,glycan array binding signal (z-score),[19],-0.201
same,glycan array binding signal (z-score),[20],-0.39
same,glycan array binding signal (z-score),[21],-0.377
same,glycan array binding signal (z-score),[22],0.325
same,glycan array binding signal (z-score),[23],-0.448
same,glycan array binding signal (z-score),[24],-0.385
same,glycan array binding signal (z-score),[25],-0.256
same,glycan array binding signal (z-score),[26],0.262
same,glycan array binding signal (z-score),[27],-0.434
same,glycan array binding signal (z-score),[28],0.081
same,glycan array binding signal (z-score),[29],-0.185
same,glycan array binding signal (z-score),[30],-0.184
same,glycan array binding signal (z-score),[31],-0.263
same,glycan array binding signal (z-score),Fuc(a1-3)GlcNAc,-0.031
same,glycan array binding signal (z-score),[32],-0.398
same,glycan array binding signal (z-score),[33],0.17
same,glycan array binding signal (z-score),[34],-0.386
same,glycan array binding signal (z-score),[35],-0.415
same,glycan array binding signal (z-score),[36],-0.376
same,glycan array binding signal (z-score),[37],-0.289
same,glycan array binding signal (z-score),[38],0.799
same,glycan array binding signal (z-score),[39],-0.439
same,glycan array binding signal (z-score),[40],-0.275
same,glycan array binding signal (z-score),[41],0.48
same,glycan array binding signal (z-score),[42],-0.459
same,glycan array binding signal (z-score),[43],-0.092
same,glycan array binding signal (z-score),[44],-0.017
same,glycan array binding signal (z-score),[45],0.805
same,glycan array binding signal (z-score),[46],0.764
same,glycan array binding signal (z-score),[47],0.011
same,glycan array binding signal (z-score),[48],-0.333
same,glycan array binding signal (z-score),Fuc(a1-4)GlcNAc,20
same,glycan array binding signal (z-score),Fuc(b1-3)GlcNAc,0.094
same,glycan array binding signal (z-score),Gal(a1-2)Gal,0.589
same,glycan array binding signal (z-score),Gal(a1-3)Gal,0.529
same,glycan array binding signal (z-score),Gal(a1-3)Gal(b1-3)GlcNAc,0.9
same,glycan array binding signal (z-score),[49],-0.316
same,glycan array binding signal (z-score),[50],-0.461
same,glycan array binding signal (z-score),[51],-0.376
same,glycan array binding signal (z-score),[52],-0.236
same,glycan array binding signal (z-score),[53],-0.387
same,glycan array binding signal (z-score),Gal(a1-3)Gal(b1-4)Glc,0.177
